Where “and” joins values, the source holds several entries; their conditions need not be identical. Identical values can stand only once. About 2,100 (0.72%) of roughly 290,000 compounds were called active. The shares of active, inactive and inconclusive entries below differ from those in the screen. The call rests on the fitted dose curve; in most records, active means well fitted inhibition curve with a large enough effect; inconclusive means small, poorly fitted or top-dose-only effect, or effect the other way; inactive means flat fitted curve, though single readings scatter. A potency beside an inconclusive call is a rough fit, not a confirmed value.
Biological target: Fructose-bisphosphate aldolase (Giardia intestinalis (strain ATCC 50803 / WB clone C6)) (UniProt A8B2U2)
Assay: qHTS Assay for Inhibitors of Fructose-1,6-bisphosphate Aldolase from Giardia Lamblia; further: nearly all actives have a fitted effect of over 55% in size
Settings: purified Giardia FBPA; series mostly up to 59.6 µM
In short: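 Giardia FBPA (40 nM reagent) was preincubated 10 min at RT with compound (up to 57.5 uM final), then substrate plus GAPDH/TPI/NAD/arsenate coupling system with diaphorase/resazurin was added; resorufin fluorescence (525/598 nm) was read after 20 min.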
Potency means the concentration at half of the fitted maximal effect; tags describe the fitted curve by direction and shape.

Sequence of UniProt A8B2U2 (A8B2U2 whole entry, looked up): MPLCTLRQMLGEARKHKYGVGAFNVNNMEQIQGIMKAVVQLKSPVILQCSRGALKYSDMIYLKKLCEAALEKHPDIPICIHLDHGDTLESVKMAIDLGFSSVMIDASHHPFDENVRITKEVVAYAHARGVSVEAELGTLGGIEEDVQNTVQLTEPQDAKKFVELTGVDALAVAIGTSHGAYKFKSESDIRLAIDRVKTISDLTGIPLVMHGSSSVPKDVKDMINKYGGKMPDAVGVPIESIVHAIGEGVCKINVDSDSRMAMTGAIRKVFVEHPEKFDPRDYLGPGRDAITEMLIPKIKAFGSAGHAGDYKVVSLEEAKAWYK

Row | Structure (SMILES) | Potency
1 | CN(C)CCCOc1ccc(C(C)(C)c2ccccc2)cc1 | inconclusive: 17.7 µM [inhibitor, partial curve]
2 | CC(C)S(=O)(=O)c1csc(NC(=O)Nc2cc(Cl)ccc2Cl)c1Cl | inconclusive: 15.8 µM [inhibitor, single point]
3 | COC(=O)c1ccc2c(c1)C(C)(C)C(/C=C/c1ccccc1O)=[N+]2C | inconclusive: 44.6 µM [inhibitor, single point]
4 | COC1=C/C(=C/c2c(O)c(C#N)c3ccccn23)C=CC1=O | inconclusive: 22.3 µM [inhibitor, partial curve]
5 | COc1cc(CN2CCCC(CO)(Cc3ccccc3)C2)ccc1O (stereo unspecified) | inactive
6 | CCc1ccc(S(=O)(=O)Nc2cc3c(cc2N2CCCCC2)n(C)c(=O)c(=O)n3C)cc1 | inconclusive: 20 µM [inhibitor, partial curve]
7 | CCC(C)NCCOCCOc1ccc(Br)cc1 (stereo unspecified) | inconclusive: 17.7 µM [inhibitor, partial curve]
8 | COc1ccc(CNC(=O)/C=C/C(=O)O)cc1OC | inconclusive: 15.8 µM [activator, partial curve]
9 | N#CCCn1c(=O)c(-c2ccccc2)nc2cnc(Oc3ccccc3)nc21 | inactive
10 | Cc1ccc(CN2CCCN(C)CC2)c(C)c1 | inconclusive: 17.8 µM [inhibitor, partial curve]
11 | Cc1ccc(C(C)C)c(OCCCCCN2CCOCC2)c1 | inconclusive: 20 µM [inhibitor, single point]
12 | CN1CCC(N(C)CC(O)c2ccccc2)CC1 (stereo unspecified) | inconclusive: 17.7 µM [inhibitor, partial curve]
13 | O=C(C1CCCN(Cc2ccccc2[N+](=O)[O-])C1)N1CCCCC1 (stereo unspecified) | inconclusive: 14.1 µM [inhibitor, partial curve]
14 | COC(=O)CC1C(=O)NCCN1Cc1cn(-c2ccc(C)cc2)nc1-c1cccc(C)c1 (stereo unspecified) | inconclusive: 19.9 µM [inhibitor, partial curve]
15 | CCC(=Nc1ccc(N)cc1)C1=C(O)C(C(=O)OC)C(C)(C)CC1=O (stereo unspecified) | active: 1.12 µM
16 | CC(C)c1ccc(/C=N/NC(=O)C2CCCC2)cc1 | inactive
17 | N#Cc1c(-c2ccccc2)cc(C2CC2)nc1SCC(=O)O | inconclusive: 17.7 µM [activator, partial curve]
18 | Cc1cc(C)n(/N=C\c2c(O)ccc3ccccc23)c(=O)c1C(N)=O | inconclusive: 14.1 µM [inhibitor, partial curve]
19 | Cc1ccc([N+](=O)[O-])c(OCCN2CCNCC2)c1 | inconclusive: 22.3 µM [inhibitor, partial curve]
20 | Cc1cc(-c2ccco2)n(-c2ccccc2)n1 | inconclusive: 12.6 µM [inhibitor, partial curve]
21 | Cc1ccc(S(=O)(=O)N2CCN(CCc3ccccc3)CC2)c(C)c1 | active: 20 µM
22 | CSc1nncc(-c2ccc(F)cc2)n1 | inactive
23 | CCCCCCCCCCCCC(C(=O)O)C(C)C(=O)O (stereo unspecified) | inconclusive: 19.9 µM [activator, single point]
24 | COc1ccc(OC)c(-c2nnc3n2N=C(c2c(OC)cccc2OC)CS3)c1 | inactive

Row | Structure (SMILES) | Potency
25 | Cc1ccc(C)c(NC(=S)N2CCCC2)c1 | inactive
26 | O=C(Nc1ccccc1)N1CC2(CCN(C(=O)c3cc(C(F)(F)F)cc(C(F)(F)F)c3)CC2)C1 | inactive
27 | CCOC(=O)C(C)On1c(-c2cccc(Cl)c2)nc2ccc([N+](=O)[O-])cc21 (stereo unspecified) | inconclusive: 15.8 µM [inhibitor, partial curve]
28 | Cc1cc2nc3c(=O)n(C4CCCCC4)c(=O)[nH]c3nc2cc1N | inconclusive: 6.29 µM [inhibitor, partial curve, poor fit]
29 | [O-]/C(=C(\C(=S)Nc1cccc2ccccc12)[n+]1cccc(CO)c1)c1ccc(Cl)s1 | inconclusive: 17.7 µM [inhibitor, partial curve]
30 | CN(c1ccc(C(=O)Nc2cccc([N+](=O)[O-])c2)cc1)S(C)(=O)=O | inconclusive: 17.7 µM [inhibitor, partial curve]
31 | CCc1ccc(NC(=O)[C@@H](NC(=O)[C@@H]2Cc3ccccc3CN2)C(C)CC)cc1 (stereo partly specified) | inconclusive: 31.6 µM [inhibitor, single point]
32 | O=C(Nc1cnn(Cc2ccc(Cl)cc2)c1)c1ccc([N+](=O)[O-])cc1 | inactive
33 | CC(C)CC(=O)CC1(O)C(=O)Nc2ccccc21 (stereo unspecified) | inactive
34 | CC(C)Nc1nc(-c2ccccc2)nc(-n2ccnc2)n1 | inactive
35 | O=C(Cc1ccc(F)cc1)N1CCC(CC2CC(c3cccc(Br)c3)=NO2)(C(=O)NCC2CCCCC2)CC1 (stereo unspecified) | inactive
36 | CCSc1nnc(NC(=O)C(NC(=O)c2ccc(Cl)cc2)C(C)C)s1 (stereo unspecified) | inconclusive: 17.7 µM [inhibitor, single point]
37 | O=C1NC(=O)C(=Cc2ccc(Oc3ccc([N+](=O)[O-])cc3)cc2)C(=O)N1 | inconclusive: 15.8 µM [inhibitor, partial curve]
38 | CC1(OC(=O)CCc2ccccc2)C(=O)C=C2C=C(c3ccc(C#N)cc3)N(Cc3ccccc3)C=C2C1=O (stereo unspecified) | inconclusive: 5.61 µM [inhibitor, full curve] and inconclusive: 1.12 µM [inhibitor, single point]
39 | CC(C)Oc1ccc(C(CCN)C2CCCCC2)cc1 (stereo unspecified) | inconclusive: 28.2 µM [inhibitor, single point]
40 | Oc1ccc(Nc2nc3ccccc3nc2Nc2ccc(O)cc2)cc1 | inconclusive: 15.8 µM [inhibitor, single point]
41 | Cn1cc(CN2CCCC(CO)(Cc3ccccc3)C2)c2ccccc21 (stereo unspecified) | inactive
42 | CCOC(=O)c1sc(NC(=O)CSc2n[nH]c(-c3ccccc3)n2)c(C#N)c1C | inconclusive: 15.8 µM [inhibitor, partial curve]
43 | Nn1cnnc1N/N=C/c1ccccc1C(F)(F)F | inconclusive: 28.2 µM [inhibitor, single point]
44 | CC1CCN(CC(=O)Nc2ccc(N3CCCCCC3)cc2)CC1 | inconclusive: 28.1 µM [inhibitor, single point]
45 | COCCn1c(-c2ccc(OC)cc2)c(-c2ccc(OC)cc2)oc1=O | inactive
46 | CCC(=O)CC | active: 14.1 µM
47 | CCn1c2ccccc2c2cc(CN3CCN(Cc4cc(OC)ccc4O)CC3)ccc21 | inconclusive: 17.7 µM [inhibitor, partial curve]
48 | N#C/C(=C(\O)c1cc(Cl)sc1Cl)c1nc2ccccc2[nH]1 | active: 25.1 µM

Row | Structure (SMILES) | Potency
49 | CCS(=O)(=O)n1nc(-c2ccc(Cl)cc2)nc1SC | inactive
50 | Cc1ccc2oc(=O)c(/C=C(\O)c3ccco3)nc2c1 | active: 19.9 µM
51 | Cc1ccc2c(c1)Cc1c(C(=O)NN3CCCCC3)nn(-c3ccc(Cl)cc3Cl)c1-2 | inconclusive: 17.7 µM [inhibitor, partial curve]
52 | COc1ccc(OC)c(N=Cc2c(O)n(Cc3ccccc3)c(=S)[nH]c2=O)c1 | inconclusive: 3.54 µM [inhibitor, full curve, poor fit]
53 | Cn1ccnc1SC(C(=O)O)c1ccccc1 (stereo unspecified) | active: 14.1 µM
54 | CCCCC(=Nc1ccc(N)cc1)C1=C(O)C(C(=O)OC)C(C)(C)CC1=O (stereo unspecified) | inconclusive: 5 µM [inhibitor, partial curve]
55 | O=C(O)c1ccc(/C=C/c2ccc3cccc(O)c3n2)cc1 | active: 17.7 µM
56 | CC(=O)c1cccc(NC(=S)Nc2ccn(Cc3cccc4ccccc34)n2)c1 | inactive
57 | O=C(O)CNC(=O)CC1S/C(=N/N=C2/NC(=O)CS2)NC1=O (stereo unspecified) | active: 17.7 µM
58 | COc1ccc(C)cc1NC(=S)NNC(=O)c1c(Br)cnn1C | inconclusive: 15.8 µM [activator, single point]
59 | COc1ccc(Cl)c(Cn2c(NCc3ccco3)nc3c2c(=O)n(C)c(=O)n3C)c1 | inconclusive: 17.7 µM [inhibitor, partial curve]
60 | Cc1cc(OCCOCCNCc2ccccc2)ccc1C(C)C | inconclusive: 14.1 µM [inhibitor, partial curve]
61 | CCOC(=O)N1CCN(CC(=O)N2c3ccccc3CCc3ccccc32)CC1 | inconclusive: 15.8 µM [inhibitor, single point]
62 | O=S(=O)(Nc1ccc2cn[nH]c2c1)c1ccc(Cl)cc1 | inconclusive: 22.4 µM [inhibitor, partial curve]
63 | CC1(O)C(=O)C=C2C=C3CCCN3C=C2C1=O (stereo unspecified) | inconclusive: 3.15 µM [inhibitor, partial curve]
64 | COC(=O)c1cnc(NNS(=O)(=O)c2ccc(Cl)cc2)nc1C(F)(F)F | active: 15.8 µM
65 | S=c1[nH]nc(-c2ccc(Cl)cc2Cl)n1-c1ccc(Cl)cc1 | inconclusive: 14.1 µM [activator, partial curve]
66 | COc1ccc(N2CCC(CNC(=S)Nc3ccc(C)cc3C)C2)cc1 (stereo unspecified) | inconclusive: 19.9 µM [inhibitor, partial curve]
67 | Cc1ccc(NC(=O)C2C3C=CC(O3)C2C(=O)O)c(C)c1 (stereo unspecified) | inactive
68 | Cc1nn(Cc2ccccc2)c(C)c1N | inconclusive: 8.89 µM [inhibitor, partial curve]
69 | CCCc1ccc(OCC(=O)NNC(=S)NC(=O)c2ccco2)cc1 | inconclusive: 11.2 µM [activator, partial curve]
70 | N#Cc1c(N(CCO)CCO)nc(N)c2c(N)nc3c(c12)CC(=O)N3CC1CCCO1 (stereo unspecified) | inconclusive: 9.98 µM [inhibitor, partial curve]
71 | Cc1ccccc1C(=O)Nc1ccc2c(C#N)c3nc4ccccc4nc3n2c1 | inconclusive: 6.29 µM [inhibitor, partial curve]

— PubChem BioAssay AID2451 (National Center for Advancing Translational Sciences (NCATS), 2010)
